Data reported in ChEMBL document CHEMBL4888484, “Replenishing the malaria drug discovery pipeline: Screening and hit evaluation of the MMV Hit Generation Library 1 (HGL1) against asexual blood stage Plasmodium falciparum ,using a nano luciferase reporter read-out” (2022).
In all, about 150,000 compounds went through this assay and about 540 (0.36%) showed an effect of 50% or more. The list shows a part of the results.

system: Plasmodium falciparum; assay: Primary screen in NF54 nanoGlo assay, in single point, at 2uM, 72h; a lower Z score goes with more inhibition; type: functional, Erythrocyte; settings: timepoint 72 hour

Compound | % Inhibition [%] | Z score
CO[C@@H](CNC(=O)NC(C)C)c1ccccc1Cl | 20 | -2.57
CCCCN1CCN([C@@H](C(=O)N2CCNC(=O)CC2)c2ccccc2)C(=O)C1=O | -11 | 2.13
C[C@@H](CC#N)N1CCC(c2ccsc2)CC1 | -2 | 0.3
CCN(CC)[C@@H](CNc1ccc2nnc(C3CC3)n2n1)c1ccco1 | 4 | -0.56
Cc1cccc(N2CCN3c4cc(Cl)ccc4CC4(C(=O)CCCC4=O)[C@@H]3C2)c1C | -2 | 0.35
C[C@H]1COCCN1C(=O)NCCc1csc(N2CCCC2)n1 | 4 | -0.3
Cc1csc(C(=O)NC2CC(O)C(CO)C2)c1 (configuration not stated) | -1 | 0.19
Cc1ccc(C)c(S(=O)(=O)NCCNc2ccc(Nc3ccncc3)nn2)c1 | 47 | -2.68
O=C(CN1CCC(c2ccccn2)CC1)NCC1CC1 | 2 | -0.43
Cc1noc([C@]23CN(CCO)CC[C@H]2CN(CCc2ccccc2)C3)n1 | -1 | 0.2
COC(=O)[C@@H]1CN(c2nc3c(s2)c(C)nn3C)CCN1C | -14 | 2.55
O=C(CCc1nnc(Cc2cccc(C(F)(F)F)c2)o1)NCc1ccccc1 | -4 | 0.49
CC(C)n1nccc1[C@H]1OCC[C@@H]1NC(=O)C(C)n1cnc2c(N)ncnc21 (some centres not stated) | 2 | -0.27
CCn1ncnc1[C@@H](Nc1nccc(C)n1)C1CC1 | 14 | -1.78
CC(C)(C)n1ncnc1NC(=O)NC1CCCC1 | -6 | 0.92
Cn1cc(-c2ncc(C(=O)N3CCC(c4ccnn4C)CC3)s2)cn1 | -4 | 0.72
COc1ccc([C@H]2CC(=O)Nc3ncn(-c4ccc(C(F)(F)F)cc4)c32)cc1O | 5 | -0.57
CNC(=O)c1ccc(Cn2ccnc2-c2ncc[nH]2)cc1 | -3 | 0.59
COc1c(C(=O)NC2CCC(O)(c3cccc(F)c3)CC2)cnn1C (configuration not stated) | 5 | -0.88
CC(=O)N1CCC([C@@H]2CN(Cc3cc(F)c(F)cc3F)C[C@H]2CO)CC1 | -8 | 0.93
O=C(O)c1cccnc1N1CCN(Cc2ccc(F)c(F)c2)[C@@H](CCO)C1 | -12 | 1.2
C[C@H]1CCc2sc(C(=O)N3CCC(c4ccnc(N)n4)CC3)cc2C1 | 10 | -1.31

Compound | % Inhibition [%] | Z score
C[C@H]1CN(Cc2ccc(OCCCn3ccnc3)cc2)CCCO1 | -13 | 1.38
Cc1cccc(C(=O)NCCc2cccs2)n1 | 9 | -1.02
Cc1ccccc1C(NS(=O)(=O)CC1CCCCO1)C1CC1 (configuration not stated) | 0 | -0.03
CC(=O)/C(=N/Nc1ccc(Cl)cc1)Nc1ccc(Br)cc1 | -11 | 1.54
CCC(=O)N1CCN(C(=O)c2ccn(C)c(=O)c2)C1 | 5 | -0.58
Cc1nn(C)c(C)c1CN1CC(C)C1C (configuration not stated) | -12 | 1.16
CCc1ccc([C@@H](NCC(=O)N2CCNC2=O)C(C)(C)C)o1 | 4 | -0.59
CC(C)(CO)NC(=O)[C@H]1CCN(c2ccccc2F)C1 | -6 | 0.92
Cc1noc(C)c1CCC(=O)N1CCC[C@H](Oc2cccnn2)C1 | 12 | -1.42
O=C(c1ccc(F)cc1Cl)N1C2CCC1CC(n1ccnc1)C2 (configuration not stated) | -8 | 0.96
CC(C)n1ccc(NC(=O)N2CCN(C(=O)Cc3ccccc3)CC2)n1 | -17 | 3.01
CCNC(=O)c1nc(C(=O)NCc2ccco2)cs1 | 29 | -4.22
CCOc1ncccc1C(=O)Nc1cc(S(=O)(=O)N2CCOCC2)ccc1N1CCCC1 | -14 | 1.88
Cc1cc(C)nc(/C=C/NC(=O)c2ccco2)c1 | -4 | 0.74
CCc1noc([C@H](C)n2ccnc2-c2cnc(-c3ccco3)nc2)n1 | -7 | 0.72
Cc1nc(-c2c(-c3ccccc3)ncn2CC2(CO)CCOCC2)c[nH]1 | -8 | 1.42
CC[C@H](NS(C)(=O)=O)c1ccc(C)c(C)c1 | -7 | 1
O=C(CCC(F)(F)F)N1CCC2(CCC(=O)N(Cc3ccncc3)C2)CC1 | -13 | 2.17
O=S(=O)(c1ccc(F)c(Cl)c1)N1CC(n2nccn2)C1 | 5 | -0.93
Cc1cccc(N2CC[C@@H](C(=O)NCCc3ccccc3)C2=O)c1C | -2 | 0.18
CCCCN(C)S(=O)(=O)Nc1ccccc1OC | -9 | 1.37
CCOc1ccccc1NC(=O)CC(=O)N[C@H](c1ccncc1)c1ccc(C)cc1 | 17 | -2.28

Compound | % Inhibition [%] | Z score
COCCNC(=O)[C@H]1C[C@H](Oc2ccccc2)CN1Cc1ccncc1 | -11 | 2.1
CN(C)C(=O)NCc1cc2n(n1)CCN(c1nc(N)nc3[nH]ncc13)C2 | -7 | 0.92
Cc1c(C(=O)N2CCO[C@H](c3ncon3)C2)oc2c(Cl)cccc12 | -11 | 1.1
CCn1ccc(C(=O)N2CC[C@H]2c2cccc(OC)c2)cc1=O | -3 | 0.48
O=C(NCc1cc(C2CC2)ncn1)c1cccnc1 | 13 | -1.67
O=C(Nc1ccc2c(c1)OCO2)NC1CCCCCC1 | 1 | -0.19
O=C(NC1CCc2nccn2C1)C1CC1c1c(F)cccc1F (configuration not stated) | -10 | 1.3
O=C(NCCCc1ccccc1)c1ccc(CN2CC(=O)N3CCCC[C@H]3C2=O)cc1 | -8 | 1.06
CCOc1cccc(CCNC(=O)N2CCS(=O)(=O)C[C@@H]2C)c1 | 2 | -0.33
O=C(NC1CCCC1)N1CCCCC[C@@H]1CN1CCCC1 | -1 | 0.16
CCS(=O)(=O)c1cccc(NCc2cn3cccnc3n2)c1 | -12 | 1.08
O=C(NCc1cccnc1-n1ccnc1)c1cnc2ccccn12 | -10 | 1.96
Cn1nncc1CN1CCCC1C1CCCN1Cc1ccccc1 (configuration not stated) | 1 | -0.15
CCOCc1nc(-c2ncc(C)cn2)no1 | -8 | 1
Cc1ccc(S(=O)(=O)N2CC3(C2)CC(C)(C)C3)cc1 | 1 | -0.1
Cc1ccc([C@H]2c3ccccc3CCN2C(=O)c2ccc(F)cc2)cc1 | -3 | 0.46
CC(C)C(=O)Nc1c(C(=O)N2CCCCCC2)oc2ccccc12 | -5 | 0.52
NC(=O)C1CCN(C(=O)c2cc3c(ccc4ccccc43)[nH]2)CC1 | -18 | 2.27
c1cncc(CN(Cc2ccsc2)Cc2cccn2-c2nccs2)c1 | -10 | 1.6
CC(=O)Nc1cccc(NCc2noc(-c3ccccc3)n2)c1C | 1 | -0.2
Cc1ccc2c(c1)Oc1ccc(S(=O)(=O)N3CCC(C)CC3)cc1C(=O)N2 | -14 | 2.03
COc1ccc(-c2noc(CCn3c(=O)[nH]c4cc5c(cc4c3=O)OCO5)n2)c(OC)c1 | 29 | -0.54

Compound | % Inhibition [%] | Z score
CN1C(=O)[C@]2(CCN(C(=O)CCc3ccccc3)C2)c2ccccc21 | -4 | 0.57
CCn1cc(-c2nncn2-c2cc(C)nn2C)c(C)n1 | -17 | 2.05
Cc1nc(CC(=O)Nc2nc(-c3ccc4c(c3)OCO4)cs2)cs1 | -7 | 0.91
Cn1ccc(C(=O)Nc2cc(Cc3ccccc3)ccc2O)cc1=O | -7 | 1.46
CS(=O)(=O)CC(=O)N1CCC(c2ccccc2)=N1 | 13 | -1.72
COc1ccc(/C=C/CN2CC[C@H](NC(=O)c3ccncc3)[C@@H](O)C2)cc1 | -23 | 2.1
C[C@@H](C(=O)Nc1ncccn1)N1CCC(c2nc3ccccc3s2)CC1 | 1 | -0.19
CCOC(=O)N1CCN(C(=O)c2c(C)n[nH]c2C2CC2)CC1 | -13 | 2.3
COc1ccc(S(=O)(=O)N2CCN([C@H]3CC(=O)N(Cc4ccc(Cl)cc4)C3=O)CC2)cc1 | -3 | 0.5
Cn1cc(CN2CC[C@H](CNC(=O)NCc3ccccc3)C2)cn1 | -9 | 1.91
Cc1c[nH]c(CN2CC(c3ccccc3)(c3ccccc3)CCC2=O)n1 | -11 | 1.67
N#Cc1ccc(C(=O)N2CCC(COc3ccc(C(=O)NC4CC4)cc3)CC2)cc1 | -10 | 1.97
Cc1cc(S(=O)(=O)Nc2noc(C)c2Cl)sc1C | 2 | -0.45
CC(=O)Nc1ccc(-c2cc(-c3ccccc3)nc(-c3ccccc3)n2)cc1 | -14 | 2.76
CNc1cc(C(=O)N2CCCC[C@@H]2CCc2cccs2)ccn1 | -10 | 1.28
CC(=O)c1c(-c2ccc(C(=O)N3C[C@]4(C)C[C@H]3CC(C)(C)C4)cc2)cnn1C | -17 | 1.5
O=C1CC[C@@H]2CN(C(=O)c3cnn4c3CCC4)c3cccc1c32 | -10 | 1.23
CCOc1ccc(-c2cc(C(=O)NC[C@@H](c3ccccc3)N3CCCC3)no2)cc1 | 2 | -0.38
Cc1nn(C)c(C)c1S(=O)(=O)N1CCC(c2cncn2C)CC1 | -9 | 1.7
O=C(c1ccc(F)cc1)N1CCOc2ccc(N3CCOCC3)cc2C1 | -10 | 2
